Assay results: patent publication US10736889B2, “Method of treating dyskinesia” (Rutgers, The State University of New Jersey, priority 2011, dated 2020)

Tested on: Parkinsonian monkeys with LID

Compound: Oc1ccc2c3c1OC1[C@@H](O)CC[C@@]4(O)[C@@H](C2)N(CC2CCC2)CC[C@]314 (stereo partly shown) [Nalbuphine]
- sedation (Example 1A, 0.1 and 0.2 mg/kg SC): No sedation occurred
- dyskinesia duration (Example 1A, 0.1 and 0.2 mg/kg SC with 75 mg levodopa methyl ester, vs levodopa alone): lasted for a shorter time
- dyskinesia severity (Example 1A, two monkeys, 0.1 and 0.2 mg/kg SC with 75 mg levodopa methyl ester (plus benserazide), vs levodopa alone, PD-MDS): ameliorated
- sedation or other adverse effects (Example 1B, 0.25 or 0.5 mg/kg SC): no sedation or other adverse effects
- effect of 0.5 mg/kg compared with 0.25 mg/kg (dose-response) (Example 1B, FIG. 2): slightly more pronounced than 0.25 mg/kg
- severity and duration of dyskinesias (Example 1B, three monkeys, 0.25 or 0.5 mg/kg SC before 75 mg SC L-dopa methyl ester (plus benserazide)): Substantial reduction
- effect on Parkinsonism (anti-LID efficacy of kappa agonism): without worsening Parkinsonism
